Assay results reported in PubChem BioAssay AID624296 (National Center for Advancing Translational Sciences (NCATS), 2012).
The whole screen tested about 350,000 compounds, of which about 9,900 (2.8%) were called active. The shares of active, inactive and inconclusive entries below differ from those in the screen. The call rests on the fitted dose curve; in most records, active means well fitted activation curve with a large enough effect; inconclusive means small, poorly fitted or top-dose-only effect; inactive means no such curve, though single readings can be large or run the other way. Potencies of inconclusive entries are left out as doubtful fits.

Assay: A quantitative high throughput screen for small molecules that induce DNA re-replication in MCF 10a normal breast cells. Further: nearly all actives have a fitted effect of over 50% in size. On activity, positive = re-replication: % of control where 0% means no effect.
Conditions: MCF 10A DNA re-replication, Hoechst nuclear intensity, 48 h; activity, positive = re-replication: at 46.1 µM (top of the series)
Potency means the concentration at half of the fitted maximal effect; tags describe the fitted curve by direction and shape.

Structure (SMILES) | activity, positive = re-replication | Potency
O=C(Cn1nnc(-c2cccs2)n1)N1c2ccccc2Sc2ccc(C(F)(F)F)cc21 | inactive: -0.929% | –
Cc1ccc(NC(=O)COc2ncnc3sccc23)cc1S(=O)(=O)N(C)C | – | inconclusive [activator, single point]
O=C(Nc1nc2ccc(C(=O)N3CCCCC3)cc2s1)C1CCCCC1 | – | active: 4.11 µM
CCCC(=O)Nc1ccc(NC(=O)c2ccco2)c(OC)c1 | inactive: -3.83% | –
CN(C)c1ccc(C(=O)/C=C/c2ccco2)cc1 | inactive: 7.59% | –
O=C(CSc1nnc(-c2ccccc2F)n1C1CC1)Nc1cccnc1Cl | inactive: 8.55% | –
CCOC(=O)c1ccc(N2C(=O)c3n[nH]c(C)c3C2c2ccc(O)cc2)cc1 (stereo not drawn) | inactive: -6.44% | –
CCCCc1ccc(-c2csc(/C(C#N)=C/c3ccc(C)o3)n2)cc1 | – | inconclusive [activator, partial curve]
Cc1ccc(N(C(=O)CCl)C(C(=O)NC2CCCCC2)c2cccnc2)cc1C (stereo not drawn) | – | active: 7.31 µM
COc1ccc(C2CC(c3c(O)cc(C)oc3=O)=NCCS2)c(OC)c1 (stereo not drawn) | – | active: 1.12 µM
O=C(Nc1ccccc1)N1CCCN(c2nccc(C(F)(F)F)n2)CC1 | inactive: 4.54% | –
Nc1nc(Nc2cccc(Cl)c2)n[nH]1 | – | inconclusive [activator, partial curve]
Cc1cccc(Nc2ncnc3c2cnn3Cc2ccccc2)c1 | inactive: 1.58% | –
N#C/C(=C/c1cccc([N+](=O)[O-])c1)C(=O)Nc1ccccc1O | – | inconclusive [activator, single point]
Cn1ncc(N=Cc2ccccc2)c1C(=O)Nc1cccc(Cl)c1 | – | active: 18.4 µM
CCOC(=O)CCc1ccc(NC(=O)/C=C/c2ccc([N+](=O)[O-])o2)cc1 | – | active: 9.2 µM
Cc1nc2cc(-c3ccccc3)nn2c(C)c1CCC(=O)NC(C)c1ccc2c(c1)OCCO2 (stereo not drawn) | inactive: 2.85% | –
CC1(c2ccccc2)NC(=O)N(CC(=O)Nc2ccc(N3CCOCC3)cc2)C1=O (stereo not drawn) | – | inconclusive [activator, single point]
CSc1nc(Oc2ccc3ccccc3c2)c2sccc2n1 | – | inconclusive [activator, partial curve, poor fit]
CCCCCCCCCCCNC(=O)c1ccoc1C | – | active: 25.9 µM
Cc1cc(C)nc(-n2nc(C)cc2NC(=O)CN2CCCC(C)C2)n1 (stereo not drawn) | – | inconclusive [activator, full curve, poor fit]
Cc1cc(NC(=O)c2c(-c3ccccc3Cl)noc2C)no1 | inactive: 3.76% | –
COc1ccc(N2CCOCC2)c(NC(=O)c2cccnc2)c1 | – | inconclusive [activator, partial curve, poor fit]
Cc1ccc(S(=O)(=O)c2cn(C)c3cc(N4CCOCC4)c(F)cc3c2=O)cc1 | inactive: -0.23% | –
CCOC(=O)C1=C(N)N2C(=O)C(C)SC2=C(C(=O)OCC)C1c1ccccc1 (stereo not drawn) | inactive: -5.69% | –

Structure (SMILES) | activity, positive = re-replication | Potency
FC(F)(F)c1ccc(N2CCN(c3ncnc4c3nnn4Cc3ccccc3)CC2)nc1 | – | inconclusive [activator, full curve, poor fit]
CC(C)c1c(O)cc(-c2ccncc2)n(-c2ccc(Cl)cc2)c1=O | – | inconclusive [activator, full curve, poor fit]
O=[N+]([O-])c1ccc(O)c(/C=N/Nc2nc3ccccc3[nH]2)c1 | – | active: 8.2 µM
O=[N+]([O-])c1ccc(C(=S)N2CCC(Cc3ccccc3)CC2)cc1 | – | inconclusive [activator, single point]
CCCc1cc(C(=O)Nc2cccc(Cl)c2C)no1 | inactive: -10.1% | –
O=S(=O)(NC1CCCCCC1)c1cccc(Cl)c1 | – | inconclusive [activator, single point]
CCOC(=O)CN1C(=O)S/C(=C\c2ccc(-c3ccc(C(=O)O)c(Cl)c3)o2)C1=O | – | active: 23.1 µM
Cc1ccc(S(=O)(=O)NNC(=O)c2c(O)c3ccccc3[nH]c2=O)cc1 | – | active: 5.8 µM
CC(CCc1ccccc1)NC(=O)c1cc2sccc2n1C (stereo not drawn) | – | active: 14.6 µM
O=C(NCc1ccccc1)c1ccc(NC(=O)C2CCC2)cc1 | – | inconclusive [activator, full curve, poor fit]
O=C(CSc1nc2ccncc2[nH]1)Nc1ccccc1C(F)(F)F | inactive: -3.75% | –
CCO[C@H]1OC(C(=O)Nc2ccccc2)=C[C@@H](c2ccc(C(F)(F)F)cc2)[C@@H]1CCCO | – | inconclusive [activator, full curve, poor fit]
N=C1/C(=C/c2ccc(-c3cccc(C(=O)O)c3)o2)C(=O)N=C2SC=C(c3ccccc3)N12 | – | active: 5.8 µM
CCOC(=O)c1oc2ccccc2c1NC(=O)c1cccc(OC)c1OC | – | inconclusive [activator, single point]
COc1ccc(Br)cc1C(=O)NC(=S)Nc1ccc(CN2CCOCC2)cc1 | – | inconclusive [activator, partial curve, poor fit]
COc1cc(CSc2nc(-c3ccccc3)cc(=O)[nH]2)cc(OC)c1 | – | inconclusive [activator, single point]
Cc1ccc(-c2nn(-c3ccccc3)cc2C=C2C(=O)CC(C)(C)CC2=O)cc1 | – | inconclusive [activator, partial curve, poor fit]
CC(/C=C/c1ccco1)=N\NC(=O)C(O)c1ccccc1 (stereo not drawn) | – | active: 23.1 µM
O=C(CSc1ccc2c(c1)OCCO2)Nc1ccc(Cl)cn1 | – | inconclusive [activator, partial curve]
Cc1cc(OCc2cc(C(=O)N(C)CCc3cnn(C)c3)no2)cc(C)c1Cl | inactive: 8.62% | –
COc1ccccc1NC(=O)N(O)C1(C#N)CCCCC1 | inactive: -4.11% | –
O=C1N(CN2CCOCC2)c2ccccc2C12OCC(CCl)O2 (stereo not drawn) | inactive: -0.924% | –
COc1ccccc1NC(=O)c1c(N=Cc2c(O)ccc3ccccc23)cnn1C | – | inconclusive [activator, partial curve, poor fit]
COc1ccc(Br)cc1CN(C)CC(O)COc1ccc(Br)cc1 (stereo not drawn) | – | inconclusive [activator, single point]
C(=NN=C1c2ccccc2-c2ccccc21)c1c[nH]c2ccccc12 | – | inconclusive [activator, single point]

Structure (SMILES) | activity, positive = re-replication | Potency
O=C(Nc1ccccc1)N(Cc1ccccc1)C1=NCCS1 | inactive: -0.808% | –
COc1ccccc1OC(C)C(=O)Nc1nc(-c2ccc(S(=O)(=O)N3CCOCC3)cc2)cs1 (stereo not drawn) | – | inconclusive [activator, partial curve, poor fit]
CC(=O)N1CCN(C(=O)COC(=O)CNC(=O)c2ccc(C)cc2)CC1 | – | inconclusive [activator, single point]
CCOc1ccccc1O[C@H](c1ccccc1)[C@H]1CNCCO1 | – | inconclusive [activator, partial curve, poor fit]
Cn1ncc([N+](=O)[O-])c1C(=O)n1nnc2ccccc21 | – | inconclusive [activator, partial curve, poor fit]
O=C(CCN1C(=O)/C(=C/c2ccc(Cl)cc2)SC1=S)NC1C=CS(=O)(=O)C1 (stereo not drawn) | – | inconclusive [activator, full curve, poor fit]
Cc1nc2c(c(=O)n1CCC1=CCCCC1)c1nc3ccccc3nc1n2/N=C/c1ccco1 | – | inconclusive [activator, single point]
CCOc1ccc(NS(=O)(=O)c2ccc(C(=O)N(C)CC(=O)Nc3ccccc3Br)cc2)cc1 | – | inconclusive [activator, single point]
c1ccc2cc(OCCN3CCCC3)ccc2c1 | – | inconclusive [activator, single point]
O=c1[nH][nH]c(-c2ccccc2O)c1C(C[N+](=O)[O-])c1ccccc1 (stereo not drawn) | – | inconclusive [activator, single point]
Cc1ccc(S(=O)(=O)N(CC(=O)c2ccc(Cl)cc2)C(=O)N2CCN(C)CC2)cc1 | inactive: -0.699% | –
COC(=O)COc1ccc(/C=N/NC(=O)c2ccc(N(Cc3ccccc3)S(C)(=O)=O)cc2)cc1 | – | inconclusive [activator, single point]
CC(=O)c1cc(-c2ccccc2)[nH]c1N1CCCC1 | – | inconclusive [activator, partial curve, poor fit]
CCOc1ccc(NC(=O)c2cc(C3CC3)nc3c2cnn3C(C)C)cc1OC | – | inconclusive [activator, partial curve, poor fit]
COc1ccccc1NC(=O)C(C)OC(=O)C1CCN(S(=O)(=O)c2ccccc2C(F)(F)F)CC1 (stereo not drawn) | – | inconclusive [activator, single point]
CCOc1ccccc1NC(=O)c1ccc(CN2CCc3ccccc3C2)cc1 | – | inconclusive [activator, partial curve, poor fit]
O=C(CSc1nc2nn(-c3ccccc3)c(=O)c-2c2n1CCCCC2)NCCCc1ccccc1 | inactive: -11.9% | –
O=C(Nc1ccccc1)OCC1CCCO1 (stereo not drawn) | inactive: -1.71% | –
COc1ccc(OCCCON2C(=O)c3ccccc3C2=O)cc1 | inactive: 0.15% | –
CCCC(=O)Nc1ccc(C(=O)/C=C/c2ccc(SC)cc2)cc1 | – | inconclusive [activator, single point]
COc1ccc(OC)c(NC(=S)NCc2cccs2)c1 | inactive: 18.4% | –
CCNCCC(=O)N1c2ccccc2Sc2ccc(C(F)(F)F)cc21 | inactive: -4.41% | –
Cc1cccn2c(=O)c3cc(S(=O)(=O)c4ccccc4)c(=N)n(Cc4ccco4)c3nc12 | inactive: 2.51% | –
